# Measurements taken from the supplement of paper PMC3334620.
# The full ranking holds about 33,000 sequences; the median of “E-score (-0.5 to 0.5)” is about -0.056, and the highest 2% start at about 0.38. This is one part of the list.
# Biological target: Stb4 (UniProt P50104)
# Assay: PBM E-score (8-mer binding enrichment) (E-score (-0.5 to 0.5)); higher = stronger / more preferred TF binding; most listed sequences are background and not binding sites
# Conditions: protein concentration: 200 nM; construct: GST-DNA-binding domain
# Summary of the method: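 Full-length yeast transcription factors or their DNA-binding domains, GST-tagged and expressed with PURExpress, were applied at about 100-200 nM to universal all-10-mer Agilent arrays. These arrays had been made double-stranded by primer extension on fresh or once-stripped slides. Detection used fluorescent anti-GST, normalisation used masliner, and E-scores for ungapped eight-base words pooled with reverse complements came from the Universal PBM Analysis Suite.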
row,Sequence,PBM E-score
1,ACTCGCAA,-0.197
2,CAGCCTCC,-0.0731
3,CCCGCGGC,0.284
4,CCCTCAGC,-0.236
5,AAATCACG,0.0354
6,AGCCCCGG,0.188
7,GGCCTCAA,0.0517
8,GTAAAACA,-0.13
9,AGTAGTTA,-0.0446
10,CTCGAGAA,-0.198
11,ATGCTAGG,-0.0458
12,CGCTATGA,-0.0586
13,AGTCGGAT,0.429
14,CGGCATCA,0.236
15,GCTGGTAA,-0.0973
16,CAATGAGC,-0.171
17,AAGTCATT,-0.211
18,AGAGGTAG,-0.29
19,TATAAAAA,0.0563
20,CGAGCCCA,-0.0285
21,ACCGCTAC,-0.021
22,AGTCGCCC,-0.122
23,CGGCGTCC,0.201
24,TGATCCAA,-0.00835
25,AAGTGGCC,-0.0655

row,Sequence,PBM E-score
1,ATTGCGTA,-0.117
2,ATAGCTAT,0.125
3,CATCCGCG,0.285
4,AATGACGT,-0.126
5,AAGTACTA,-0.0492
6,ATAAGGAT,-0.103
7,CGTAATGA,-0.0348
8,CTTGAAGA,-0.251
9,ACAGCTTA,-0.219
10,ACTATACA,-0.199
11,TAATATGA,0.117
12,CGAGGGTA,0.0333
13,AGACCGTG,-0.0481
14,ACGTGAGC,-0.109
15,AATCTACT,-0.0889
16,GCATCGAA,-0.189
17,AGCTCGCC,-0.0787
18,GCATCACA,-0.06
19,GTCTTGCA,0.00052
20,GCCTACAC,-0.272
21,CTGCGGGA,0.136
22,ATTCGTGG,-0.26
23,ACGCGTCA,-0.152
24,GTCTGACA,0.0724
25,GAATCCGC,0.206

row,Sequence,PBM E-score
1,TAACATCA,-0.176
2,ACCCAGGG,-0.274
3,CCGACCGC,0.187
4,TAGGACGA,-0.182
5,AGCCACAC,-0.216
6,AAACTCAT,0.105
7,CGCAGATC,-0.0103
8,CTGATACA,-0.0562
9,CGACTACG,0.077
10,CGAGTCAA,-0.0247
11,CGGCGCCG,0.369
12,TAAACTCA,0.0247
13,AAGCCTAA,-0.0457
14,ATGCATGA,-0.0846
15,CTAGACTC,-0.137
16,AAGTCTCC,-0.103
17,CATGAGCA,-0.165
18,CAATTGTG,-0.0461
19,ATACCGTC,0.0633
20,TGCGTGAA,0.0669
21,CGAAACAG,0.0698
22,AAGGGGTA,-0.161
23,AACACCGA,0.232
24,AGGTGCAT,-0.0401
25,CAGCTGTC,-0.201

row,Sequence,PBM E-score
1,GCTACCAC,-0.225
2,AACTCTCC,0.0711
3,AGACATGC,-0.00611
4,CATATGTA,-0.267
5,CTGTCCTC,-0.15
6,GACGTAGC,0.00068
7,ACGCTACG,-0.0278
8,GTCAGGTA,-0.0721
9,ATAGAGCA,-0.228
10,CGTAAACA,0.055
11,GTATGTGA,-0.0657
12,CTTCATTA,-0.247
13,GGACCAAC,0.0837
14,TAGCTTCA,-0.337
15,CGACATGA,0.0408
16,AGCTGACG,-0.231
17,ATATTCTA,0.0111
18,TAGTGATA,-0.313
19,CTACTTCC,0.202
20,AAATGGGC,-0.125
21,CGAGGTAC,0.155
22,GTGCATTA,-0.128
23,GCAGCCTA,-0.153
24,TGTATACA,-0.1
25,CGAATCCA,0.121

row,Sequence,PBM E-score
1,ATTTAAGC,-0.038
2,ACACCCAG,-0.196
3,TCCCTTCA,-0.306
4,AACATCGG,0.29
5,AATAAGGG,-0.211
6,CTATCCAA,-0.268
7,GGCACCTA,0.146
8,AGCATCTA,-0.0852
9,CACATCGG,0.309
10,AAACATTG,-0.11
11,AGTCGAGC,-0.223
12,AGTAATTC,0.133
13,AGAGAATA,-0.0783
14,CATTAGCG,-0.128
15,AGCGCATG,-0.226
16,AGAGATGA,-0.0223
17,AGCAGAAA,-0.087
18,ATGCTCAG,-0.115
19,GTTCATGA,0.0541
20,CTCAATAC,0.033
21,ATGAAGCA,-0.267
22,ACTTTGAC,-0.17
23,ACTAGAAA,-0.0015
24,AACCCAAC,-0.0126
25,GATTCCTA,0.0036

row,Sequence,PBM E-score
1,TAGTCCCA,-0.219
2,AAACGAAC,-0.0827
3,CGCTACCA,0.0369
4,GGAGATGA,-0.0948
5,TACGAGCA,-0.0169
6,GGTGATGA,-0.0768
7,CAACACCA,-0.243
8,CATCAACC,0.00345
9,CATTTTGC,-0.0275
10,GGTCAACA,0.0781
11,AGGGATAC,-0.198
12,AACCAGCG,0.00653
13,GTTGCTGA,-0.162
14,CCTTTTCC,0.0594
15,ACAAACAC,0.0656
16,AAGACCGA,0.238
17,AGCGCTAT,0.0189
18,GCAGTTCA,-0.154
19,CGTTCTGA,-0.199
20,CCGGGTTA,0.345
21,AGAACTCG,0.0715
22,CAGGTTTC,0.0331
23,AGTCACGA,-0.147
24,CCGGAGGC,0.204
25,CTCTCACA,-0.274

row,Sequence,PBM E-score
1,CGTTACTA,-0.124
2,CTGTGAGA,-0.151
3,AAGCGCTC,-0.137
4,GTGTGCCA,-0.157
5,ATTATCCG,0.475
6,AAGTCAAT,0.012
7,ATTCCTAC,-0.0871
8,AGTATTTG,-0.218
9,GATGACGC,-0.108
10,AGAGCAAC,-0.287
11,GAAAGACA,0.00775
12,CGCATGGC,0.0142
13,CGGCAATC,0.331
14,CTCATTCC,0.253
15,ACATACCA,-0.0731
16,GGTCGGGA,0.368
17,CCGGATCG,0.413
18,ACGTAACT,-0.204
19,ATTGCGGG,0.188
20,AACGTTAT,-0.00129
21,GTCTTGTA,-0.167
22,ATCTGGCC,-0.0094
